In PMC10726135:
The other results are listed elsewhere or left out. At the low end of the ranking the order means little. The protein was read in a cell extract, so binding may be indirect.

Target: T1, HNF4alpha8 (COS-7 nuclear extract) (UniProt P41235-5)
T1 sequence: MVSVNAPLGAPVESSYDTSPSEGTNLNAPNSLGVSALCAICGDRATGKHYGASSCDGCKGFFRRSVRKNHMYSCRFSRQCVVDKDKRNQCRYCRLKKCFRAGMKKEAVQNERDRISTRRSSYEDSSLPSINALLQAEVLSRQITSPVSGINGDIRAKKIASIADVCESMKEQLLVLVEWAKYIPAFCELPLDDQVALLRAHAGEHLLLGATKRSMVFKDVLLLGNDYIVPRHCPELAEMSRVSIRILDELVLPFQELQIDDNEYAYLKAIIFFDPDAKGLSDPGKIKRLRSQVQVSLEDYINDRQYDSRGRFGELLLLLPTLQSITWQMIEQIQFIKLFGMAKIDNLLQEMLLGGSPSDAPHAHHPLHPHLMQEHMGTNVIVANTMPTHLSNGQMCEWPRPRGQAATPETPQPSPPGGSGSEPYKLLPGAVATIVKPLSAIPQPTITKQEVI
Test: protein-binding microarray
Conditions: COS-7 nuclear extract on double-stranded Agilent 4x180k PBM; binding buffer, salt, pH and temperature not given; high values mean tight binding; double strand, one strand shown; sequences stand for … in …GCCTAGGGAGATTAGAGTATCGGTCGA

Row | Sequence | binding signal (log2 normalized intensity)
1 | CAAGCTGGCTGGCTTTAGAGTTGTAGCTCT | -1.27
2 | GAGGAAGACATCATATTTGTTATATTTGTT | 0.811
3 | TCTGTAGTTTTCGTTGTCTAATCCTTCAAA | 1.64
4 | GTGCATGGAGTGCACTGTGATCTTTAGAAA | 2.3
5 | GGGGCCAGTGTCATTTACAGAATTTCTCAG | -1.38
6 | CAGCAAGGCCCAGGGCAAGGACTCTAAAGG | -0.908
7 | CGCTAGAGCAAATACAGCACTCAAATGATC | -0.431
8 | GAGCAAACACCAAGGGCAGAGTCCTGGGGA | -0.852
9 | CTCAACAAATATTAGCTGTTGGCTCCAGAG | -1.26
10 | CAGATCCCTCTGGTGCTGATGTGTTCGCCC | 1.79
11 | AGGGGAGATAATGCCAGAAAGGTCTAAAAG | -0.995
12 | CTGCATTCCTCAACTCTAGGAGCATGTCAA | -0.663
13 | GAGGGAGAGTGGCCTTTGGAATCAAACAGA | 2.93
14 | TTCATTTAGACATGTTTACTTTTGCAAGGT | 1.51
15 | GTGAGGCCAAAAGGTGCTACCACGAGAGTA | -1.11
16 | CATGCCACACATTGCTGCCATAACTCAAAA | -1.23
17 | CTCCGGCCGGGAAGATGCCAGCCCCGAGAT | 3.91
18 | ATGCACGGAAGCCTTCCCCGCCCGCAGCCC | 4.31
19 | AGGATCAAGGGTGGATATTGGGAGGCCCAT | -1.12
20 | ATTCATTCCCTAAGATTCTGGTCAAAGGTC | 7.83
21 | GCCAGCTGGCCTCCTGCGGTCCGGACTCTG | 2.43
22 | AGCTGGAATGAAACGGATGCAAAGGCTGAG | -1.16
23 | CCCAGCCTATTAACCCCAAATTCCTCATGC | 1.31
24 | CCTTCAACTGATTAGATAAGGTTCACCCAC | 1.88
25 | GGGCCAAAAGCAGCCATTAAGAAGCAAGTG | -1.11

Row | Sequence | binding signal (log2 normalized intensity)
26 | TGAGAGAGCTGCATTGCTTCTGAAGGCTTA | -1.37
27 | TCTTCTCAGTGTTTTGGGTCCTACAGAACC | 0.643
28 | CCAGATGAGAGCAGAGGCTGGGGCCCTCTT | -1.28
29 | GGACTTTGGTCTCATGGGCCTAAACATTCC | 5.24
30 | ACGGGGGCCGCTCTCCCTCCAGGCCCCAGC | -1.29
31 | ACTGTCATGGATGACCTCTTTTAGTAACTG | 2.02
32 | TGAAGAGGCCAGGGGCACTCTCTGTTATCA | -0.997
33 | TTAGGATGACCTTTAGATTCTTACAGGCAA | 4.57
34 | TTTCATTCCACTGACTTGCAACCTTTGCCC | 7.51
35 | AATTTCAGAGGGAAGAGGAAGCATCCTATA | -1.31
36 | CAAAGGTCATAATTTGATCCAGTGTGCAAA | 4.08
37 | TGGTGTTGAAGCTCTGGTTCAAACAAGGCC | -0.24
38 | ATATCTGCCTCAGTAGTAGTGAAAAATGAA | 0.637
39 | TAGGCTTGGAGCCTTGTAAAATGTACATGG | 1.09
40 | TCCCTGCCCACATCCATTTTCTATCCTACT | -0.948
41 | CTAGAACAGCTCCTTTGAAGCTTCGAGCCT | -1.4
42 | TGCCCAAAAGGACACAGGGTCTGTTTTCAA | -0.222
43 | ATGTCCCTACCACATACAGAATCCTTTACC | -1.16
44 | CTGGCTTGGAAAAAGCAGGCAACCAAGGGT | -1.26
45 | TATCTTCCAGACCTTCTTAAAAAGTGTTGA | 1.15
46 | TTTGCCTTAGGCCATTGTCCTTTGGGCTCA | 2.13
47 | TTTGTTAACAGCTTCTGTTCGCAGACCTGC | -1.29
48 | GTCCTCCACAGCGTTTTCCTCCAGCCTGTC | -1.3
49 | TCAGAAGGGAGGTAGTCGCCCTCCGTCGTG | 0.247
50 | TGTTGTCTAACATTTTTGACCTTCAGCATC | 5.92

Row | Sequence | binding signal (log2 normalized intensity)
51 | GTAAAGATCTTGAGGCCCACAAGGAATTTC | -1.2
52 | CAGTGAGATTAGGAAGTGTGCACAAGTCCT | -0.955
53 | ACTAAAACCTGCTGCAGGAGAGATGGTCAG | 0.619
54 | ACTGATAGTCTCCTATCAAGAAAATAGAAG | -1.34
55 | TATCATCTGATCCTTGTACCTGCGACTGAG | 1.7
56 | GCTTTTGGAAGGACTTCGAATGGTATGCTA | -0.468
57 | AAGGATAAATACTTCTCCTCTTATCTTCAG | -1.08
58 | GCTGAAAGCTCCAAGTTTATAATCCTAGCT | -1.21
59 | TTGTTGTTAGAACAAAGTCCAAATTCCTAA | 5.05
60 | CAGTTATCATTTCTACAGGGTCAAGCAAAC | 2.04
61 | AGGAGTGGACTGTTCAAGACCAAAGGTCAT | 6.44
62 | TTCCCAAGTGCTAGCTTGGTCTGAACCTCA | 1.42
63 | ATGTCCTCAGTACACTGCCTCCTTCAAGGA | -1.33
64 | CCCAAGTGGCCATCTTCACGCAATACTAGC | -1.23
65 | AAAGTCAACGGCTCTGCATATGCCAACAGG | -0.804
66 | GCCACTGTGTGTGTGTGTGTGTCTGTGTGT | 3.19
67 | CACTGCACCTGCCTGAACAAGTCCAGTGAC | -1.22
68 | AGAGCAAGGGTCAAGGGTCATTTGTTTTTA | 6.31
69 | AATGATTGCATAATCTGGCTCCAAAGTCTA | 2.98
70 | AGGTAAAAAGTCCAGCTGCCAGGGAGACAA | -1.24
71 | GAGGTTATTTCACCCCAGCAAACAGGTCCT | 1.83
72 | CACTTGTGCAGTTTTTCTGCCGAAGATATT | 1.4
73 | AGTTTCAACTTAACCCCAGTTTAGCAATTT | 2.08
74 | CAAAGGTCATACCTGTCTAGGTGGAGGGAC | 3.49
75 | TCTGCTGCCCTCTAGGGTTGCCCAGGGAGA | 0.182

Row | Sequence | binding signal (log2 normalized intensity)
76 | CCAGGGGAGGGTAAGAGTCCAACTTCTGCA | 3.4
77 | GAGCTTCAGACGCCCTATGGCGTCCGCCTC | -1.32
78 | TGCCTCTGAGCTAAGATAACCATCAAATCC | -1.3
79 | TCTTTCAGTGTTGACCTTTGAACATTTCTT | 8.97
80 | TTCTGCATGTCATAGTTGACATTCCATCAT | 0.58
81 | CCCTGCCTGACCTGCCCTTTGTCCCTCCTG | 5.06
82 | CTGGAATGTTTCAAGTGGCCTGATTTGACA | 1.04
83 | CTGACGCAACAGAAAACTCAACTTCTAACT | -1.47
84 | GGGAGTGCAGAGAGAGAGGGAGACAACCTT | -1.37
85 | GCACAGGGAATGGCTCGTATGAATGTGGGA | -1.34
86 | CCCTCAGGGTTTAGGCCTGGGACCTTTCCA | 0.634
87 | AAGAGATAAGGGTGGCCATCCATCCTGGCG | -1.17
88 | CCTTTGAGAGTCAACACTGAAATAGCATAC | 0.103
89 | TGAGTTCCACAGATAAGGAGGAGACAGACT | -1.1
90 | AGCAGACCCCTACTGGGGATGGACTTTGGC | 6.94
91 | CTTGGAGGACCTTGGGTTCATTTTACAATG | 2.08
92 | ACATTCCATGAGCTGGCCTCACTAAGTCCT | -0.885
93 | TATAGAAAAGGAAAGTGAGGCCTGGCCGAG | -1.18
94 | CAGAATGAACAGCTCTTCTTGCCAGCTGGC | -1.28
95 | CTGACCCCAAGTAATAGCCGTTTCTGTCCA | 1.67
96 | TTGTAAAGGGTAATCTGCTTTTCTCGAAGC | -1.14
97 | CCACGGAGCACATTCCATGCCCGGGTTGCT | -1.29
98 | AGGGACTCAGGCACACAAAAAAAACCACTC | -1.27
99 | CTATGTTTAATGTATAAACCCTGAGGGTCA | 2.99
100 | GAAATCATCTCCATGCCGACTCCGAACTAT | 0.433

Row | Sequence | binding signal (log2 normalized intensity)
101 | GCCAAGCTCTGGGCTAGTCCCTGAGTATTA | -0.741
102 | ATGGCTAGAAAGTCAGTGAAGGAGCTGACT | -1.15
103 | TTTGCTTTTCCCTGCTGCTGGCTGGCGGCC | -1.19
104 | GGGTTAGGCCTGGAACCTGTCTGACAGGAT | -0.182
105 | CTTGTCACTTTCCCTTTGTCTCCAGGCCCT | -0.134
106 | GAGGGGGGAGGGTCGGCAACGGTGATTACC | -1.16
107 | GGGCCTGCGAGGTTACAGGGTTCAACACGT | 2.76
108 | CCATGACTGCTCCCTCTGCTCCCCTGGCCT | 2.19
109 | ATGGGAACTTCTCACCTTCAGATGCCATGT | 1.15
110 | TGACATTGGTGGAATCTGAACTTTTGGCTC | 2.67
111 | CTCTGCCCCTCATCGAGGCCATCCCAGTTA | 3.38
112 | GCCAGGACAAAGGTCCTGTGGCCTGGGGAG | 1.14
113 | GTATGGACTTTCTGATGTCAGAAAATGCAA | 0.883
114 | GAGACAACTGCAACAGGAGGACCTCTGGAT | -0.854
115 | CTGCTTTGTGGCATCAGGGTCCACAAGGGT | 3.18
116 | TCAAGATGTCTCAAGATATCTATATGTTTA | 0.953
117 | CTCAAGAATTGTCTAACCGCAGCAAGACAC | -1.4
118 | CTTTCAAGGCAGATTTCTGTCTTTGATCTG | 1.23
119 | AGTTCAAACTCTGAAAGCACTAAGTTACCT | -1.46
120 | CACAAAAAGGCTGTCACACTTGCCCTTTGC | 5.42
121 | GGGCTAGTCCCTGAGTATTATCTTTTTAAT | -0.131
122 | GTCTTCCTCAAATTACAAAAGGAGTTGGGG | 0.108
123 | CCTTGGATTAAAGGAGAACTGAGTAGGAGA | -0.768
124 | GATAACACTGATAACATGAGGTAGAGGGAC | -1.16
125 | CATTAAGCTTAGCGTTATCAAACCAAATAT | -0.632

Row | Sequence | binding signal (log2 normalized intensity)
126 | TCAAGAGAAATGTTATCTCAGTAGACTAAC | -1.22
127 | TGCAAGTTACCTTGGGGTCAAAGTACATCC | 9.54
128 | TTTGATCAGCTGGTCCTTCAAGTGTGACCC | 4.35
129 | AATACAGCACTCAAATGATCAAAGAAGCCC | -1.38
130 | TTAGGTGGACAGGGGTGTGTTGACCGATAA | 1.77
131 | ATAGCTGAAATTTGTATCTTGGGTTAGGCC | 0.581
132 | GTCTCAAAAAAAAAAAAAAGGCAGTCCTTA | -1.32
133 | GGCTGTCTCAGTGGGTGGGAAAGGGTGCTC | 0.651
134 | ATCCCTCGTAGGCAGGGCCAGATAAAGCAG | -1.4
135 | ACAGCACTTAGGGTTCAAAGGTTGTTGAGC | 6.67
136 | GCATCTTCAACTGTGTGAGCTGATCACACC | -0.289
137 | TTAGTGGAGTATAGGAACATGAACTGAGCA | -0.356
138 | CTCTGGCCCTTAAAGGCTTTTGCAAGAAAA | -1.26
139 | CTGCTCAGGGTGGGGTCTCGCTGCTTCGGC | -1.32
140 | TAAGCACCCAGATAAGTTATCCTTGTTCTA | 0.773
141 | GCTGGGATAACCGAGGCTGACAGCAGAGAG | -1.27
142 | GTCCAGTTGAATGATGGCGAGTGTGCAATT | 0.26
143 | TTTCCCTGGGGTCAATAGTTGTGTAAATAG | 2.34
144 | AAGTTCATGGAAAGTTTCACTTTCTCTTAT | 0.0777
145 | TTCCAGCAAAGAGATTAGGACACAGCAGAG | -1.3
